Assay results reported in PMC4336329 (PLoS ONE, 2015).
Hit rate of the full screen: of about 310,000 compounds, about 2,200 (0.71%) showed an effect of 50% or more. Effects have a minus sign here. This is one part of the list.

Molecular target: human ether-à-go-go-related gene (hERG) potassium channel (human, UniProt Q12809)
Assay: primary screen, population patch clamp on CHO cells stably expressing hERG

Sequence of human ether-à-go-go-related gene (hERG) potassium channel (Q12809 whole entry, looked up): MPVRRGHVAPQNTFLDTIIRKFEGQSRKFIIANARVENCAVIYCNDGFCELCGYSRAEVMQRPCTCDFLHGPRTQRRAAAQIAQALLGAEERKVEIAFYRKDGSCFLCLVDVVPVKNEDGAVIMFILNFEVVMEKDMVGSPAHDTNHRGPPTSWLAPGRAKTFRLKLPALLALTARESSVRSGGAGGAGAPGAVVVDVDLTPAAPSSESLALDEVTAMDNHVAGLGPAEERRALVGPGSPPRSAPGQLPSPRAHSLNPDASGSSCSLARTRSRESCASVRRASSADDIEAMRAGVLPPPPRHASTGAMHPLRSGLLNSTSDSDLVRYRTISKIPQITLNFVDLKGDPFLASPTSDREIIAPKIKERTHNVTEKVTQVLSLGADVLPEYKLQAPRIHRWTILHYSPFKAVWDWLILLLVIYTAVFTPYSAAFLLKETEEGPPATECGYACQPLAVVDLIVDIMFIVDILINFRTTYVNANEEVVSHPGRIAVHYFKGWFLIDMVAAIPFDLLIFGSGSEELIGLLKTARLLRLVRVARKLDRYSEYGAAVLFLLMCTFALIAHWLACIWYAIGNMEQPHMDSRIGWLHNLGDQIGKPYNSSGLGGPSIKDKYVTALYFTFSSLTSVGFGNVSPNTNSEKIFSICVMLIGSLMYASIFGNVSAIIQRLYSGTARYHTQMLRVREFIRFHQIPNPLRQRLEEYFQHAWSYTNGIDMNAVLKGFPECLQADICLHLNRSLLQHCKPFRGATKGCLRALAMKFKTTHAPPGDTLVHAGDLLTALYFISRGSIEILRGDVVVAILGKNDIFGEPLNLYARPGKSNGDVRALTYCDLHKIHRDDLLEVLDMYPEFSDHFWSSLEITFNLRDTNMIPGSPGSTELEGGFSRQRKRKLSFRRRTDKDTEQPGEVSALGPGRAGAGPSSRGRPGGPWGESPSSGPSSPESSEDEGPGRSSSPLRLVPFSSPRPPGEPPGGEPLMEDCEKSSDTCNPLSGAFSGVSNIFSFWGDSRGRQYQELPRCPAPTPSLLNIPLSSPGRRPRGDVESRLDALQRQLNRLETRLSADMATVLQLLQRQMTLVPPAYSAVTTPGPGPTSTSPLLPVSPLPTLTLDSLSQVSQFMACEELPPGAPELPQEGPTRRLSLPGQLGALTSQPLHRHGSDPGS

| Structure (SMILES) | hERG current change (%, negative = inhibition) at 1uM [%] |
| --- | --- |
| NNC(=O)[C@@H]1C[C@@H]1c1ccccc1 | 2.06 |
| COC(=O)c1ccc(C(=O)NC2CCCc3c2cnn3-c2ccccc2F)nc1 (centres unmarked) | 9.02 |
| O=C(c1cc(COc2ccc(F)cc2Cl)on1)N1CCCC(OCc2cccnc2)C1 (centres unmarked) | -4.37 |
| CN(C(=O)c1cccs1)c1ccc(OCC(=O)N2CCC(C(N)=O)CC2)cc1 | 25.6 |
| C[C@H](NC(N)=O)C(=O)Nc1ccc(OCc2ccccc2)cc1 | 10.7 |
| COc1cc(NC(=O)C2=CC(c3ccco3)=NS(=O)(=O)N2C)cc(OC)c1OC | 11.7 |
| C#CCNC(=O)C1CCN(c2cc(C)nc(-c3ccccc3)n2)CC1 | -8.78 |
| CCOC(=O)CSc1cc(=O)n(C)c2cc(Cl)ccc12 | 14.1 |
| CCOC(=O)C1CCN(S(=O)(=O)c2cc3c4c(c2)C(C)C(=O)N4CCC3)CC1 (centres unmarked) | 10.3 |
| O=C(COc1ccccc1F)N1CCCc2ccccc21 | 16.2 |
| Cc1ccc(-c2nn(CC(=O)NCC3CCCO3)c(=O)c3ccccc23)cc1 (centres unmarked) | -7.7 |
| C/C(=N\Nc1cc(N2CCOCC2)ncn1)c1cccc([N+](=O)[O-])c1 | 10.3 |
| CCOC(=O)CC1=NN(c2ccccc2)C(=O)C1 | 16.1 |
| CC(C)OC(=O)c1cccc(C(=O)Nc2cccc(NC(=O)c3cccc(C(=O)OC(C)C)n3)n2)n1 | 17.4 |
| Cc1noc(C)c1S(=O)(=O)N(CC(=O)Nc1ccc2c(c1)OCCO2)c1ccc(C(C)C)cc1 | 6.67 |
| O=C(Cn1ccc(NC(=O)OCc2ccccc2)nc1=O)NCC1CCCO1 (centres unmarked) | 15.1 |
| CCOC(=O)C1=C(C)N(CCCC(=O)O)C(=O)NC1c1cccs1 (centres unmarked) | 21.3 |
| CC(=O)Nc1ccccc1C(F)(F)F | 18.8 |
| CC1=CC(c2ccc(Cl)cc2)n2nc(N3C(=O)CCC3=O)nc2N1.O=C(O)CCC(=O)O (centres unmarked) | -1.91 |

| Structure (SMILES) | hERG current change (%, negative = inhibition) at 1uM [%] |
| --- | --- |
| C=CCN(CC=C)CCOc1ccccc1F.O=C(O)C(=O)O | 3.05 |
| CCc1ccc(C(=O)Nn2cnc3ccccc3c2=O)cc1 | 6.81 |
| Cc1nn(C)c(Cl)c1S(=O)(=O)N1CCC(CO)(CCc2ccccc2)CC1 | 3.36 |
| Cc1occc(=O)c1OC(=O)Nc1ccccc1 | 9.47 |
| CC(C)NS(=O)(=O)c1cc(C(=O)O)ccc1Cl | 0.113 |
| CCc1cc(=O)oc2c3c(cc(OCC(=O)NCCCn4ccnc4)c12)OC(C)(C)CC3 | -21.9 |
| Cc1ccc(NC(=O)Cn2cc(C(=O)C3CC3)c3ccccc32)c(C)c1 | 15.5 |
| O=C(NCCC1CCCCN1S(=O)(=O)c1cccs1)C(=O)Nc1cccc(F)c1 (centres unmarked) | 1.64 |
| CCC(=O)Nc1ccc(Cl)c(NC(=S)NC(=O)c2ccco2)c1 | 13.1 |
| COc1ccc(Cl)cc1NC(=O)CN1CCc2ccccc2C1 | 5.62 |
| O=C(CCc1nc2ccccc2c(=O)[nH]1)NNC(=O)c1ccc(F)cc1 | 10.2 |
| CCc1c(C)c(C#N)c2nc3ccccc3n2c1NCCOC | 8.87 |
| CCC(=O)OCC(=O)Nc1cc([N+](=O)[O-])ccc1OC | 1.52 |
| COc1cccc(-c2nc(-c3ccc4c(c3)-c3ccccc3S4(=O)=O)c(-c3ccccc3)[nH]2)c1OC | 3.83 |
| CCC1Oc2ccc(C)cc2N(CC(=O)NCCN2CCCCCC2)C1=O (centres unmarked) | 8.55 |
| CCn1c(SCC(=O)Nc2nccs2)nnc1-c1ccc(S(=O)(=O)N2CCCCC2)cc1 | 12 |
| O=C(NNC(=O)c1ccccc1O)c1cccc(Br)c1 | 16 |
| CC1(C)CN(c2cccc(Br)c2)C1=O | 12.1 |
| CCc1[nH]nc(C(=O)NC2CCCc3c2cnn3-c2cc(C)cc(C)c2)c1C (centres unmarked) | -4.06 |

| Structure (SMILES) | hERG current change (%, negative = inhibition) at 1uM [%] |
| --- | --- |
| CC1CCc2c(nc3ncnn3c2NCCN(C)C)C1.Cl (centres unmarked) | 8.51 |
| O=C(O)c1cc(N/N=C/C=C/c2ccccc2)ccc1Cl | 20.3 |
| COc1ccc(OS(=O)(=O)c2ccc(N3C(=O)CCC3=O)cc2)cc1 | 20.7 |
| COC(=O)c1ccccc1NC(=O)CN1CCN(c2ccccn2)CC1 | 14 |
| COc1cc(C(=O)Nc2nc(-c3ccc(F)cc3)cs2)ccc1OCC(=O)N1CCOCC1 | 1.36 |
| CCCOC(=O)C1=C(C)NC(=O)NC1c1cccc2ccccc12 (centres unmarked) | 3.77 |
| CCN(CC)c1ccc(C(=O)N/N=C(\C)c2cccc(OC)c2)cc1 | 11.8 |
| CN(c1ccccc1)c1nc(N)c([N+](=O)[O-])c(Nc2ccc(F)cc2)n1 | 15 |
| S=C(Nc1cccc(Cl)c1Cl)NC1CCN(Cc2ccccc2)CC1 | 21.9 |
| COC(=O)CC1(CC(=O)OC)C(=O)N(c2ccccc2)C(=O)N(c2ccccc2)C1=O | 9.98 |
| CCCCc1c(C)c(C#N)c2nc3ccccc3n2c1Nc1c(C)n(C)n(-c2ccccc2)c1=O | 3.89 |
| O=C(NCCCc1ccccc1)C1CCC(=O)N(Cc2ccc(Cl)cc2)C1 (centres unmarked) | -6.98 |
| COc1nccnc1NS(=O)(=O)c1ccc(N=Cc2c(C)[nH]n(-c3ccc(C)c(C)c3)c2=O)cc1 | 3.39 |
| O=C(NC(Cc1c[nH]c2ccccc12)C(=O)O)c1ccccc1 (centres unmarked) | -0.787 |
| COc1ccc(NC(=O)c2cc(=O)c3ccccc3o2)cn1 | -7.3 |
| CCCN(c1ccc(OCC)cc1)c1ncnc2nc[nH]c12 | 2.12 |
| C/C=C/c1ccc(OCCn2nnc3ccccc32)c(OC)c1 | 8.32 |
| Oc1oc(C=Nc2ccc(F)cc2F)c2ccccc12 | 9.94 |
